Results from the supplement of paper PMC4604168 (melanoma cell lines).
Some of the results follow. Single values are uncertain, as repeats are few or missing.

Tested on: SkMel30
Experiment: cell count relative to DMSO control; melanoma cells; higher = more viable cells
Settings: library dose: standard library concentration; 72 h; first compound 2 µM
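Note: cells treated in 1,536-well plates, then fixed and DAPI-stained, with nuclei counted from automated high-throughput microscope images.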

| Compound | cell count [%] |
| --- | --- |
| C[C@@H](N)c1ccc(C(=O)Nc2ccnc3[nH]ccc23)cc1 + CO[C@@H]1[C@H](N(C)C(=O)c2ccccc2)C[C@H]2O[C@]1(C)n1c3ccccc3c3c4c(c5c6ccccc6n2c5c31)C(=O)NC4 [Midostaurin] (partner dose 0.4 µM) | 71.6 |
| Cn1sc(=O)n(Cc2ccccc2)c1=O + Nc1cccc2c1CN(C1CCC(=O)NC1=O)C2=O [lenalidomide] (partner dose 5 µM) | 108 |
| Cn1sc(=O)n(Cc2ccccc2)c1=O + COc1cc2c(Oc3ccc4[nH]c(C)cc4c3F)ncnc2cc1OCCCN1CCCC1 [cediranib] (partner dose 2 µM) | 75.5 |
| C[C@@H](N)c1ccc(C(=O)Nc2ccnc3[nH]ccc23)cc1 + Cn1sc(=O)n(Cc2ccccc2)c1=O [TDZD-8] (partner dose 2 µM) | 81.7 |
| C[C@@H](N)c1ccc(C(=O)Nc2ccnc3[nH]ccc23)cc1 + CC(C)C[C@H](NC(=O)[C@H](Cc1ccccc1)NC(=O)c1cnccn1)B(O)O [Bortezomib] (partner dose 0.005 µM) | 19.5 |
| CCCCCCCCCCCCCCCCCCOP(=O)([O-])OC1CC[N+](C)(C)CC1 [Perifosine] + C#Cc1cccc(Nc2ncnc3cc(OCCOC)c(OCCOC)cc23)c1 [erlotinib] (partner dose 4 µM) | 59 |
| Cn1sc(=O)n(Cc2ccccc2)c1=O + CNC(=O)c1cc(Oc2ccc(NC(=O)Nc3ccc(Cl)c(C(F)(F)F)c3)cc2)ccn1 [sorafenib] (partner dose 2 µM) | 77.6 |
